The source gives no read counts; variants with many changes may rest on few reads.
B1: LINE1-mini (parent)
chain: GGCAGAGCUCAACACAGCGUGGCAAAGUGGCUGUGGCUAGACUGCC

Variants of: B1
Assay: self-cleavage, relative activity (ratio to wild type); higher = more cleavage; in vitro, sequencing; the parent is a self-cleaving ribozyme

Row | Variant | self-cleavage
1 | GGCAGAGCUCAAAAUCGCGUAGCAAAGUGGCUGUGGCUAGACUGCC [C13A C15U A16C G21A] | 0.02
2 | UACUGCGCUCAACACAGCGUGGAAAAGUGGCUGUGGCUAGACUGCC [G1U G2A A4U A6C C23A] | 0.02
3 | GGAAGAGCUCUCCCCUGCGUGACAAAGUGGCUGUGGCUCGACUGCC [C3A A11U A12C A14C A16U G22A A39C] | 0.01
4 | GGCAGAGCUAAUCACAGCGCGGCAAAGUGGCUGUGGCUAGACUGCC [C10A A12U U20C] | 0.04
5 | GGCAGAACUCAAAACAGCGUCGCAAAGUGGCUGUGGCUAGACUGCC [G7A C13A G21C] | 0.21
6 | GGCAGAGUCCAACACAGCGUGGCAAUGUGGCUUUGGCUAGCCUGCC [C8U U9C A26U G33U A41C] | 0.03
7 | GGCAGAGCUCAAAACUGCGUGGCAAAGUGGCUUUCGCUAGACGGCC [C13A A16U G33U G35C U43G] | 0.04
8 | GGCAGAGCACAACACAGCGUGGUAAACUGGCUGUGGCUAGACUGCC [U9A C23U G27C] | 0.03
9 | GGCCGAAUUCAACACAGCGUUGCAAGGUGACUGUGGCUAGACUGCC [A4C G7A C8U G21U A26G G30A] | 0.53
10 | GGCAGAGCUCAUCACAGCGUGGCAAAGUGGCUUUGGCUAGACUGCU [A12U G33U C46U] | 0.03
11 | GGCACAGCUCAACACAGCGUGGAAAAGUGGCUGUGGCUAGACUGGC [G5C C23A C45G] | 0.03
12 | GGCAGUGCUCAACACUGCGUGGCAAAGUGGUUGUGCGUAGACUGCC [A6U A16U C31U G36C C37G] | 0.03
13 | GGCAGCGCUCAACACAGCGUGGCAAAGUGGCUGUCGCUAGAAUCCC [A6C G35C C42A G44C] | 0.02
14 | GCCAGAGUUCAACACAGCGUGGCAAAGCGGCUGUGGCUAGACUGGC [G2C C8U U28C C45G] | 0.07
15 | GGCAAAGAUCAACACAGCGUGCGAAAGCGGCUGUGGCUAGGCUGCC [G5A C8A G22C C23G U28C A41G] | 0.07
16 | GGCAGUGCUCAACACAGGGUGGCACGGUGGCUGUGGCUAGACUGCC [A6U C18G A25C A26G] | 0.09
17 | GGCAGAGCUUAACAGAGCGUGGAAAUGUGGCUUUGGCUAAACUGCC [C10U C15G C23A A26U G33U G40A] | 0.03
18 | GGCAGAGGUCAACACAGCGUAGCAAAGUGGCUGUGGCGAGACUGCC [C8G G21A U38G] | 0.04
19 | GGCAGAGCUCGGCAUAGCGUGGCAAAGUGGCAGUGGCUAGACUGCC [A11G A12G C15U U32A] | 0

Row | Variant | self-cleavage
20 | GGCAACGCUAAACACAGCGUGGCAAAGUGGCGGUGGCUAGACUGCC [G5A A6C C10A U32G] | 0.04
21 | GUCAGAGGUCAACACAGCGUGUCAAAGUGGCUGUGGCUAGACUGCC [G2U C8G G22U] | 0.02
22 | CGCAGAGCUCAACACAGAGUGGCAAAGUGGCUGUGGCUAGACUGCU [G1C C18A C46U] | 0.04
23 | GGCAGAGCUCAAGACAACGUGGCAAAGUGGCUGUGGCUAGUCUGCC [C13G G17A A41U] | 0.02
24 | GUCUGAGCUCUCCACAGCGUGGCAAAGUGGCAGUGGCUAGACUGCC [G2U A4U A11U A12C U32A] | 0
25 | GGCAGAGCUGAACACAGCGUGGCAAAGUGGCUGUUGCUAGAAUGCC [C10G G35U C42A] | 0
26 | GGCAGAGCUCAACACAGCGGCGCAAAGUCGCUGUGGCUAAACUGCC [U20G G21C G29C G40A] | 0.04
27 | GCCAGAGCUCAACACAGCGUGGCCAAGUGGCUGUGCCUAGACCGCC [G2C A24C G36C U43C] | 0.01
28 | GGAAGAGCUCAACACAGCGUAGCAAAGUGGUUGUGGCUAGACUGCC [C3A G21A C31U] | 0.07
29 | GGCAGAGAUCAACACAACGUGGAAAUGUGCCUAUGGCUAGGCUGCC [C8A G17A C23A A26U G30C G33A A41G] | 0.07
30 | GGUAGAGCUCUACACAGCGUGGCAAAGUGGCUGUGACUAGACUGCC [C3U A11U G36A] | 0.01
31 | GGCAGAGCUCAACACAGCGUGGCAAAGUGGUUGUGUCUAGACUGAC [C31U G36U C45A] | 0.03
32 | GACAUAGCUCACCCCAGCGUCGCAAAGUGGCUGUGGCUAGACUACU [G2A G5U A12C A14C G21C G44A C46U] | 0.02
33 | UGCAGAGCACAACACAGCGUGGCAAAGAGGCUGUGGCUAGACUGCC [G1U U9A U28A] | 0.01
34 | GGCAGAGUUCAACACAGCGUUUCAAAGUGUCUGUGGCUAGUCUGCC [C8U G21U G22U G30U A41U] | 0.26
35 | AGCAGAGCUAAACACAGCGUGGCAAUGUGGCUGUGACUAGACUGCC [G1A C10A A26U G36A] | 0.04
36 | GGCAGAGCUCAACACAGCGUGGCAAAGGGGCUGUGGCUGGACUUCC [U28G A39G G44U] | 0.13
37 | GACAGAGCUCAACACAGCGUGGCAUGGUGGCUGCGGCUAGACUGCC [G2A A25U A26G U34C] | 0.17
38 | GGCAGAUCUCAACACAGCGUGGCAAAGUGGCUGUGGCUAUACUGAC [G7U G40U C45A] | 0.1

Row | Variant | self-cleavage
39 | GCCAAAGCUGAACACAGCGUGGCAAAGUGGCUGUUGCUAGACUACC [G2C G5A C10G G35U G44A] | 0.02
40 | GCCAGAGCUCGACACAGCGUGGCAAAGUGGCUGUGGCUAGACCGUC [G2C A11G U43C C45U] | 0
41 | GGCAGUGCUCAAUAUAGCGUGGCAAAGUGGAUGUGGGUAGAAUGCC [A6U C13U C15U C31A C37G C42A] | 0.21
42 | GGCCGAGCUCAACACAGCGUGGCAAUGUGUCUGUGGCUAGACUGCC [A4C A26U G30U] | 0.24
43 | GGCGGAGCUCAACACAGCGUGGCAAAGUGGCUGUGGCCAGACUGAC [A4G U38C C45A] | 0.07
44 | GGCAGAGCUCAACACAGCGUGGCAAAUCGGCUGUGGCUAGAAGGCC [G27U U28C C42A U43G] | 0.04
45 | UGCAGAGCUCAACACAGCGUGGCAAAGUGGCUAUGGCUAGACUCCC [G1U G33A G44C] | 0.05
46 | GUAAGAGCUCAACACCGCGAGCCAAAGUGGCUGUGGCUAGACUGCC [G2U C3A A16C U20A G22C] | 0.1
47 | GGCACAGGUCAACACAGCGUGGCAAAACGGCUGUGGCUAGACUGCC [G5C C8G G27A U28C] | 0.02
48 | GACAGACCUCGACACAGCCUGUGAAAGUGGCUGUGGCUAGACUGCC [G2A G7C A11G G19C G22U C23G] | 0.02
49 | GGAAGUGCUCAACACAGCGUGGCAAAGUGGCUGUCGCUAGACUGCC [C3A A6U G35C] | 0.36
50 | GCCAGAGCUCAACACAGCGUGGCAAAGUGGCUUAGGCUAAACUGCC [G2C G33U U34A G40A] | 0.01
51 | AGCAGAGCUAAACACAGCGUGGCAAAGUUUCUGUGGCUAGACUGCC [G1A C10A G29U G30U] | 0.04
52 | GGCAGAGCUCACCACAGCGUGGCAAAGAGGCUGUGGAUAGACUGCC [A12C U28A C37A] | 0.02
53 | GGUAGAGCUCGACACAGCGUGGCAAAGAGGCUGCGUCUAGACUGCC [C3U A11G U28A U34C G36U] | 0.01
54 | UGCAGAUCUCUACACAGCGGGGCGAACUGGCUGUGGCUAUACUGCC [G1U G7U A11U U20G A24G G27C G40U] | 0
55 | GGCAGAGCUCAACACAGCAUGGCAAAUUGGCUGUGGCUAGACUACG [G19A G27U G44A C46G] | 0.07
56 | GGCAGAGCCCAACACAGCGUGCCAAAGUGGCUAUGGCUAGCCUGCA [U9C G22C G33A A41C C46A] | 0.01

From the RNAGym collection of RNA variant scans (doi:10.7554/elife.90254)
